Assay results from paper PMC4336329 (PLoS ONE, 2015).
About 14,000 (4.5%) of roughly 310,000 compounds showed an effect of 50% or more. Effects have a minus sign here. Some of the results follow.

What follows are compounds tested against human ether-à-go-go-related gene (hERG) potassium channel (human, UniProt Q12809) (assay: primary screen, population patch clamp on CHO cells stably expressing hERG).
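Also: peak tail current of the secondary pulse compared with the same well before compound.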

Chain of human ether-à-go-go-related gene (hERG) potassium channel (Q12809 whole entry, looked up): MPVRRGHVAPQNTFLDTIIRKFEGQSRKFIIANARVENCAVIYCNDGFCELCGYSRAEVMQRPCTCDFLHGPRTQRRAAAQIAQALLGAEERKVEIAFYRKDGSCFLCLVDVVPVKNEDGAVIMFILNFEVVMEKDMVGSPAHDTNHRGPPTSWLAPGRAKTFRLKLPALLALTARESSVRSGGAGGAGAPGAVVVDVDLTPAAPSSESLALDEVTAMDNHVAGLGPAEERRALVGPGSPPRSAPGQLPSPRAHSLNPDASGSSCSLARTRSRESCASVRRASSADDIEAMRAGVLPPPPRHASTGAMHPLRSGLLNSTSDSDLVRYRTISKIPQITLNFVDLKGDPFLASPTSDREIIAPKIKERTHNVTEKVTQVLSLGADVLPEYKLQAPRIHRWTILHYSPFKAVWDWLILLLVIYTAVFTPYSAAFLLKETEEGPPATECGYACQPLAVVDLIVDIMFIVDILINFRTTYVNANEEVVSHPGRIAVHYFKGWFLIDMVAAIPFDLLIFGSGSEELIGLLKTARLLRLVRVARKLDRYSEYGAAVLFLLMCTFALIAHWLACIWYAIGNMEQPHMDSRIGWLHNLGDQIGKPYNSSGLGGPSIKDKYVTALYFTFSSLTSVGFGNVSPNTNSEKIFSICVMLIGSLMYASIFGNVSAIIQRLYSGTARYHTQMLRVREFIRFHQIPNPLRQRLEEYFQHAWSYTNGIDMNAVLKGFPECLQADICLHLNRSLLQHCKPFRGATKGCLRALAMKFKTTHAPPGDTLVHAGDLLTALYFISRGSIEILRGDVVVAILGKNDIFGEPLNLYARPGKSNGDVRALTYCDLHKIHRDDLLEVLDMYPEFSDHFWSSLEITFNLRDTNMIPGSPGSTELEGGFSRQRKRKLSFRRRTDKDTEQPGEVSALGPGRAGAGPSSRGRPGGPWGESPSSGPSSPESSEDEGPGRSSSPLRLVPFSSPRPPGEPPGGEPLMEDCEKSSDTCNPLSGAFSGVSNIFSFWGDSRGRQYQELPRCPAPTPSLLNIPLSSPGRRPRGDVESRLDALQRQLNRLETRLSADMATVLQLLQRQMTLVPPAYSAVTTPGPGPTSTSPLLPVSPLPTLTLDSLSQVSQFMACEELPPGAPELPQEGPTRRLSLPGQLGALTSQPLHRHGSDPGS

Compound	hERG current change (%, negative = inhibition) at 10uM [%]
CC1CCCCN1CCCNC(=O)c1ccc2nc(N3CCCCC3)sc2c1 (stereo not drawn)	-22.8
NC(=O)c1sc2nnc(-c3ccccc3)c(-c3ccccc3)c2c1N	10.2
CCCn1nnnc1NCc1ccc(F)cc1	7.59
CCCCc1ccc(NC(=O)C(=O)NCCN2CCN(C(=O)c3ccc([N+](=O)[O-])cc3)CC2)cc1	-22.4
CCOC(=O)c1ccccc1NC(=O)Cn1c(=O)n(Cc2ccccc2)c(=O)c2c(C)c(C)sc21	1.6
O=C(CSc1ccc2nnc(-c3cccs3)n2n1)N1CCCC1	-43.4
CCCNC(=O)N1[C@H]2CC[C@@H]1C(C(=O)OC)=C(c1ccc(OC)c(OC)c1)C2	-1.93
Cc1ccc(C(=O)CCC(=O)NC2=NCCS2)cc1	4.77
CNC(=O)C1CC(=O)N(Cc2ccc3c(c2)OCO3)C(=Nc2ccc(OC)cc2)S1 (stereo not drawn)	9.5
O=c1sc2ccccc2n1CCOc1ccccc1	-6.66
COCCCN(CCC#N)C(=O)c1c(-c2c(Cl)cccc2Cl)noc1C	11.7
COc1ccccc1NC(=O)Nc1ccc(-n2ccc(C(F)(F)F)n2)cc1	-4.83
CC(NC(=O)CCc1nc2cc(S(=O)(=O)N3CCOCC3)ccc2n1C)c1ccc(S(N)(=O)=O)cc1 (stereo not drawn)	-57.9
CC1CCN(C(=O)CN(c2ccccc2)S(=O)(=O)N(C)C)CC1	14.2
CCOC(=O)c1c(CC(C)C)csc1NC(=O)COC(=O)C1=NNC(=O)CC1	10.7
CS(=O)(=O)N(CC(=O)Nc1ccccc1C(=O)N1CCOCC1)c1ccc2c(c1)OCO2	12
Fc1ccc(Nc2nc3ccccc3s2)cc1	20.3
CCCCNc1ccncc1S(=O)(=O)NC(=O)NC(C)C.O=[N+]([O-])O	8.21
CCn1c(=O)cc(SCC(=O)Nc2cccnc2)c2ccccc21	-12.8
Cn1c(=O)c2c(nc(Br)n2CC(=O)c2cccs2)n(C)c1=O	-6.03
O=C1C=C(c2ccc(Oc3ccccc3)cc2)C[C@@H](c2ccc(F)cc2)C1	11.4
COc1ccc(C(=O)NCCCn2ccnc2)cc1.Cl	-5.63

Compound	hERG current change (%, negative = inhibition) at 10uM [%]
NC(=O)CSc1nnc(Cn2c(=O)sc3ccccc32)n1CCc1ccccc1	-5.68
O=C(O)CN1C(=O)C2(OCCO2)c2cc(Br)ccc21	11.2
Cl.Clc1ccc(COc2ccccc2CNCc2cccnc2)cc1	-31.1
Cc1ccc(NC(=O)C2CCC(=O)N2C(=O)OCc2ccccc2)cc1 (stereo not drawn)	-23.5
C[C@@H](C(=O)Nc1nc(-c2ccccn2)cs1)N1C(=O)C2CCCCC2C1=O (stereo partly drawn)	8.05
CCC(CC)c1nnc(NC(=O)C23CC4CC(CC(NC(C)=O)(C4)C2)C3)s1	-9.08
Cc1cccc(C)c1NC(=O)C(NS(=O)(=O)c1cccs1)c1ccccc1 (stereo not drawn)	2.73
Cc1nc2sc(C(c3ccc(Cl)cc3)N3CCN(c4ccccc4F)CC3)c(O)n2n1 (stereo not drawn)	-48.6
CC(C)Cn1c(N)c(C(=O)COC(=O)c2ccc3c(c2)OCCO3)c(=O)n(C)c1=O	-34.6
Cc1cc2nccc(-c3ccco3)n2n1	3.22
Cc1ccc(N(C(C)C(=O)N2CCCC2)S(C)(=O)=O)cc1 (stereo not drawn)	14
O=C(CSc1n[nH]c(=O)n1Cc1ccco1)Nc1ccccc1	1.99
O=C(CCCc1nc2ccccc2s1)NCc1ccccc1F	-20.2
CC1Cc2cc(/C(O)=C3/C(=O)C(=O)N(CCN4CCOCC4)C3c3cccc(Cl)c3)ccc2O1 (stereo not drawn)	6.53
NS(=O)(=O)c1ccc(CNC(=O)Cc2ccsc2)cc1	17.2
Nc1nonc1-n1nnc(C(=O)N/N=C/c2ccc(Br)cc2)c1CSC1=NCCS1	-3.36
CCOC(=O)c1ccccc1NC(=O)CSc1nnc(C)c(=O)[nH]1	22.6
O=C(COn1nnc2ccc(S(=O)(=O)N3CCOCC3)cc21)Nc1c(F)c(F)c(F)c(F)c1F	15.7
O=S(=O)(c1ccc2c(c1)nc(COc1ccc(Cl)cc1)n2CC1CCCO1)N1CCOCC1 (stereo not drawn)	-65.2
O=C1c2ccccc2C(=O)C12OC2c1ccc(Cl)cc1Cl (stereo not drawn)	4.07
COC(=O)C(NC(=O)C(CC(C)C)NC(=O)C1CCC(C)CC1)C(C)C (stereo not drawn)	-2.1
C=CCn1c(-c2ccc([N+](=O)[O-])cc2)n[nH]c1=S	14

Compound	hERG current change (%, negative = inhibition) at 10uM [%]
C[C@]12CCC3c4ccc(O)cc4CCC3C1CC/C2=N\N (stereo partly drawn)	9.03
COc1cc(NC(=O)CCC(=O)O)nc(OC)n1	5.22
Cc1ccc(CN2CCNC(=O)C2CC(=O)N(C)CCc2cnn(C)c2)cc1 (stereo not drawn)	17.2
Cc1nn(C(C)C(=O)O)c2ccccc12 (stereo not drawn)	5.91
CC1=NN(c2ccccc2)C(=O)/C1=C\c1cn(CCC#N)nc1-c1ccc(Cl)cc1	22
Cc1ccccc1-n1c(SCC(=O)N/N=C/c2ccccc2OCC(=O)O)nc2ccccc2c1=O	2.74
O=C(CC12CC3CC(CC(Br)(C3)C1)C2)NC1=NCCS1	-6.87
COc1ccc(NC(=O)C(=O)c2cn(CC(=O)N3CCCC3)c3ccccc23)c(OC)c1	11.9
C/[N+]([O-])=C\C1C(=O)CC(C)(C)CC1=O	16.6
CCc1noc(C)c1C(=O)N(CCOC)c1c(N)n(CC(C)C)c(=O)[nH]c1=O	22.7
O=C1NC(=Nc2cccc(O)c2)S/C1=C\c1cccc([N+](=O)[O-])c1	24
C#CCOCCOCCOCCNc1nc(N2CCOCC2)nc(N2CCN(C(=O)[C@H]([C@@H](C)CC)n3cc([C@@H](N)CC(C)C)nn3)CC2)n1.Cl	4.85
CCc1ccccc1NC(=O)CSc1nc2n[nH]c(C)c2c(=N)n1-c1cccc(OC)c1	-32.9
O=C(c1cc(S(=O)(=O)N2CCOCC2)ccc1F)N(Cc1nnc(-c2ccccc2Cl)o1)C1CC1	-22.8
COc1ccc(S(=O)(=O)N2CCCC2)cc1NC(=O)c1ccccc1	13.9
Cc1cc(C)cc(SCc2noc(C(=O)NC(C)C)c2C(=O)O)c1	33.6
CC(=O)Nc1ccc(N2C(=O)CSC2c2ccccc2[N+](=O)[O-])cc1 (stereo not drawn)	37.4
COc1cc(C)c(CN2CCN(S(=O)(=O)c3ccc(Cl)s3)CC2)cc1OC	-7.02
COc1ccccc1CCNC(=O)c1c(C)nn(CC(C)C)c1Cl	-4.9
C=CCNC(=S)NNC(=O)CCC(O)CCCCC (stereo not drawn)	16.4
COC(=O)Cc1sc(-c2ccccn2)nc1-c1ccccc1	-7.81
O=C(NCCCN1CCN(c2ccc(F)cc2)CC1)c1cccc(N2CCCC2=O)c1	-48.5

Compound	hERG current change (%, negative = inhibition) at 10uM [%]
CCOC(=O)c1c(C)[nH]c(C)c1C(=O)COC(=O)c1cccc(S(=O)(=O)N(CC)CC)c1	-7.06
Cc1ccc(F)cc1NCC(=O)Nc1ccc(Cl)cc1F	8.63
CCCCCc1ccc(-c2cn(Cc3ccc([N+](=O)[O-])cc3)nn2)cc1	9.08
CCn1cc([N+](=O)[O-])c(C(=O)Nc2c(C)nn(Cc3c(F)c(F)c(F)c(F)c3F)c2C)n1	-3.44
Cc1nc(SCC(=O)NC(C)c2ccccc2)c2oc3ccccc3c2n1 (stereo not drawn)	-12.1
CCOC(=O)c1sc(NS(=O)(=O)c2cc(C)ccc2C)nc1C	10.4
Cc1ccc(N2C(=O)CC(c3ccsc3)C3=C2CC(C)(C)CC3=O)cc1 (stereo not drawn)	3.75
CC(C)(C)NC(=O)NC(=O)COC(=O)COc1ccc(Cl)cc1Cl	10.1
Cc1cccc(NC(=S)/N=C(\N)Nc2nc(C)c3ccc(C)cc3n2)c1	-5.62
CCc1c(C)c(C#N)c2nc3ccccc3n2c1NCc1ccccn1	-27.2
CCOP(=S)(OCC)C(O)CCCCCn1c(=O)c(F)cn(C2CCCO2)c1=O (stereo not drawn)	-2.13
COc1ccc(C(=O)N(C)c2ccccc2C(=O)NCCc2ccccc2)cc1	-20.2
COc1ccc(Nc2cccc(Cl)c2)c(C(=O)O)c1	8.66
COc1ccc(-n2nc3c(c2NC(=O)C2CC2)CS(=O)(=O)C3)cc1	-6.08
CCCOc1nnnn1-c1ccccc1	23.1
Cc1cc(NC(=O)CCC(=O)N(Cc2ccccc2)C(C(=O)NC2CCCC2)c2ccc(C)o2)no1 (stereo not drawn)	-4.17
CCN1C(=O)CC(C(=O)OC)=C1C	27.2
CC1(C)NC(=O)N(CCOCCOc2ccccc2)C1=O	5.83
O=C(Nc1ccncc1)c1sc2ccccc2c1Cl	12
CCCCOc1ccc(C(=O)NCC(=O)NCC2CCCO2)cc1 (stereo not drawn)	2.65
O=C(CSc1ccccn1)Nc1ccc(Cl)c([N+](=O)[O-])c1	-19.6
